In the RNAGym collection of RNA variant scans (doi:10.7554/elife.90254) one finds self-cleavage data, which are given here for 167 variants.

Sequences and labels used below:
B1: OR4K15 (parent)
chain: GUUAACGGUCAUAGGCCAUGGAAACUAGGAGCACCAUUUCGCUGCCAGUGAAGAAAUGAACAAAGAAAAUCUGGGCCAGGCAGGCAUCAAAAGAAAUAGUCUUGCGCUCAACCAGAAAGUCUGUAAUCAUUUUAAGGGUA

The source gives no read counts; variants with many changes may rest on few reads.

The variants in this data set derive from B1. Briefly: self-cleavage, relative activity (ratio to wild type); higher = more cleavage; in vitro, sequencing; the parent is a self-cleaving ribozyme.
With A69G U120C A125G A126G, the self-cleavage is 0.03.

On to A68G A69G A95U A126G U139C, for which the self-cleavage turned out to be 0.96.

For the variant A69C A96U A110U, the self-cleavage worked out at 2.15.

Regarding A78G G83A U127C, the self-cleavage worked out at 0.16.

For U70C A89U A114G, the self-cleavage was 0.2.

As for A82U U87C A90G, the self-cleavage is 0.2.

U72G A86G A116U: the self-cleavage is 0.04.

As for A67G U108C A111G U133C, the self-cleavage was 0.

As to A68G A91G U100C, the self-cleavage is 2.37.

For the variant A67G G83A U108C, the self-cleavage was found to be 0.

Consider A69G A78G A125G, for which the self-cleavage amounted to 0.11.

Regarding U70C U72C U108C, the self-cleavage was 0.01.

Turning to A68G A98G U124C, the self-cleavage was found to be 0.38.

Consider U70C A89G A114G U120C U122A, for which the self-cleavage is 0.

For A68G A69U U102C, the self-cleavage is 1.69.

For the variant A78G A114U A118G, the self-cleavage came out at 0.01.

For A68G A82U U102C A111U, the self-cleavage stood at 0.02.

For the variant A78G A86G A89G A90G, the self-cleavage was determined as 0.22.

In the case of G75A A89U A94G A135G, the self-cleavage is 0.06.

Regarding A82G U87A A111G A117G, the self-cleavage was 0.

Take U72A A96G U120C: the self-cleavage came to 0.06.

For A82G U87C A140G, the self-cleavage is 0.7.

Regarding A68G A69U G73A, the self-cleavage came to 0.17.

Turning to A78G A95G A110G, the self-cleavage came to 0.1.

As for A69G A118G A140G, the self-cleavage amounted to 1.87.

Regarding A68G G79A A114G, the self-cleavage stood at 0.03.

Turning to U72A A118U A140G, the self-cleavage worked out at 0.13.

On to A68G U108C A116G, for which the self-cleavage was 0.

Take U72C G83A U102C: the self-cleavage was 0.46.

Regarding A78G A91G A96G U97C, the self-cleavage is 0.01.

A78U A94G A95G: the self-cleavage was 0.12.

In the case of A69G A82U A96C, the self-cleavage was found to be 0.03.

As for A78U A82G U132C, the self-cleavage was 0.07.

As to A69G A82G U100C, the self-cleavage was found to be 0.73.

As for U70C A91G G106A, the self-cleavage stood at 0.01.

In the case of A68G A82U A111U, the self-cleavage came out at 0.03.

In the case of C85A U122A G138A, the self-cleavage was determined as 1.94.

With A68G G93A A94G, the self-cleavage was 2.57.

C77U U108C U130C: the self-cleavage is 0.01.

In the case of A69G A90U U132A, the self-cleavage stood at 1.58.

In the case of A69G U72C A117G A118U U122C, the self-cleavage was determined as 0.05.

Take G79U A110G A114G U132C: the self-cleavage amounted to 0.

As for U72C U122C A135G, the self-cleavage was 0.12.

With A82G U100C A116G, the self-cleavage amounted to 0.38.

Turning to A82U A118G A126G U132C, the self-cleavage turned out to be 0.06.

In the case of A67G U100C U108A, the self-cleavage is 0.

Regarding A78G C85G A129G, the self-cleavage came to 0.06.

For A78G U97C U122C, the self-cleavage was found to be 0.1.

As to A86G A91G A94G, the self-cleavage came out at 0.15.

Turning to G80A U124C A125G, the self-cleavage came to 0.16.

In the case of A68G A92U U103C U124C, the self-cleavage amounted to 0.48.

Take G75U U131C A135G: the self-cleavage is 0.14.

As for A68G U102C A114G, the self-cleavage amounted to 0.39.

Regarding G73U A91G A125G, the self-cleavage was found to be 0.01.

Take G73U A86U A118G: the self-cleavage came to 0.11.

Consider A78G A82U U132C, for which the self-cleavage worked out at 0.11.

Consider A69U A95U U130C, for which the self-cleavage worked out at 2.11.

For A67G A118G A129G U131C, the self-cleavage was found to be 0.31.

Take A68G A69G U100C U122C: the self-cleavage worked out at 0.9.

For A69C A90G A129U A135U, the self-cleavage came to 0.21.

As for A68G U102A U108C, the self-cleavage amounted to 0.

G74A A89G A92G: the self-cleavage was 0.17.

In the case of A69U A116G U127C A129G U130G, the self-cleavage is 0.25.

For A68G U87C U122C A140U, the self-cleavage came to 0.64.

A78U A94G A116G: the self-cleavage turned out to be 0.16.

Turning to G74A A78U U130C, the self-cleavage came to 0.14.

For A67G A94G A126G U139C, the self-cleavage came out at 1.12.

In the case of G75C U102C A116G, the self-cleavage turned out to be 0.04.

In the case of U72A A82U A111G, the self-cleavage is 0.02.

As to C76U U87A A91G U120G, the self-cleavage amounted to 0.04.

As to A68U A78U A118G, the self-cleavage is 0.04.

A78U A95G U132A: the self-cleavage was found to be 0.12.

Turning to A78G A90G A116C, the self-cleavage came out at 0.

Turning to A82U U102C U108C U127C, the self-cleavage worked out at 0.

In the case of C77U U87A A98G, the self-cleavage is 0.66.

A69G U87C C109U: the self-cleavage was 0.14.

Regarding A67U G80A A82C U87C, the self-cleavage was determined as 0.08.

On to G75C A78G U127G, for which the self-cleavage is 0.13.

As to A68G A89G A110G, the self-cleavage was determined as 0.34.

Turning to A68G A86G A95G A116G, the self-cleavage was 1.11.

Take U70C A118G U139C: the self-cleavage is 0.29.

Turning to A67U G80C G83A, the self-cleavage was 0.06.

For A68G A78G U100C, the self-cleavage turned out to be 0.08.

Take A69G C121U A129G: the self-cleavage turned out to be 1.56.

With U72A A90G A111G A118U U130C, the self-cleavage is 0.

Regarding A78C G83A U102C U139C, the self-cleavage came out at 0.25.

In the case of A68G A114C A125C A126C, the self-cleavage turned out to be 0.01.

As to A69C A116G A117G, the self-cleavage stood at 1.14.

As to A68G A78U A94U A95G U108C A126G A129U, the self-cleavage was 0.

Take U70C U103C G106A U130C: the self-cleavage was determined as 0.

As to G74A U127C U130C, the self-cleavage stood at 0.03.

As for G83U A125U U132C, the self-cleavage stood at 0.25.

Turning to A68G A69G U108C U124A, the self-cleavage came out at 0.

With A68G A86G A91G, the self-cleavage is 0.06.

Regarding U70G A86U U124C, the self-cleavage stood at 0.69.

Regarding A82G G106A A129C, the self-cleavage is 0.

As for A82U U127A A140G, the self-cleavage stood at 0.4.

Consider C77U U103C U122C, for which the self-cleavage stood at 0.91.

For G75C A91G U130C, the self-cleavage is 0.08.

For the variant C81U U100A A110C, the self-cleavage is 0.02.

A67G G80A A96G A114G: the self-cleavage was determined as 0.02.

Take A67G A111G U120G: the self-cleavage turned out to be 0.01.

With A82G A86G U122C, the self-cleavage was 0.2.

On to U70C A82U A118G U130C, for which the self-cleavage came out at 0.03.

Consider A69G G75C A78U U108C U131C, for which the self-cleavage came out at 0.

For A82G A90G A117G U132C, the self-cleavage worked out at 0.54.

On to U70C A96G A118G U122C, for which the self-cleavage was 0.26.

On to A86G A89G U127C, for which the self-cleavage is 0.19.

With A82U U103C U108C U127C, the self-cleavage amounted to 0.01.

In the case of A68U A82G U131C, the self-cleavage stood at 0.16.

Take U70C A110G A118G: the self-cleavage was 0.06.

With A78G A89G A90U A96G U102C A118U U131C, the self-cleavage turned out to be 0.12.

For G84U U122C U131C, the self-cleavage stood at 0.15.

For A69G A92G A126G, the self-cleavage stood at 0.89.

As to A78U A96G A118G, the self-cleavage was found to be 0.12.

As to U72C G84C A86G A129U, the self-cleavage is 0.02.

Consider A68C A94G A135G, for which the self-cleavage was determined as 2.61.

Turning to A68G A96G A118U, the self-cleavage worked out at 0.92.

On to A67G U72C A95G, for which the self-cleavage is 0.22.

Turning to A78G U108C U131C A135G, the self-cleavage is 0.

In the case of G75A U122A U130C, the self-cleavage was 0.06.

For the variant A82U A96G A116G, the self-cleavage is 0.13.

For the variant U72A A98U A111G A129G, the self-cleavage was determined as 0.01.

Consider G80A A86U U139C, for which the self-cleavage is 0.31.

As for U70C U102C U124C U127C, the self-cleavage was determined as 0.32.

For the variant C81U A90G A91G, the self-cleavage worked out at 0.27.

Regarding A78U G84C U124C, the self-cleavage stood at 0.06.

On to A68G U120A U130C, for which the self-cleavage amounted to 0.89.

On to A82G A94G U108C U127C, for which the self-cleavage worked out at 0.

With A68G U87C A95G, the self-cleavage was 0.68.

On to A68G A78G U103C A114G, for which the self-cleavage is 0.07.

On to U72A A89U U102C, for which the self-cleavage turned out to be 0.56.

On to A67G A95G A96G U120C U132G, for which the self-cleavage came out at 0.42.

On to A78G A96G A110G A117G, for which the self-cleavage is 0.02.

As to A69U U70A A92U A116G, the self-cleavage was 1.3.

Take A78G A117G A125G: the self-cleavage was determined as 0.1.

C71G A96G A118G: the self-cleavage was determined as 0.17.

For A78U A92U U127A, the self-cleavage is 0.6.

For the variant A86C U120A U127C, the self-cleavage worked out at 0.42.

Turning to A67G G80A U108A, the self-cleavage is 0.02.

With U72A A98G A118G, the self-cleavage came out at 0.02.

Take A82G A91G U127C: the self-cleavage was found to be 0.13.

Consider U72C A111G U132C, for which the self-cleavage is 0.05.

Regarding A78G U102C A116G U139C, the self-cleavage is 0.12.

Turning to A86G A89C G137A, the self-cleavage is 0.57.

Turning to A67G A98G U108C, the self-cleavage was 0.01.

In the case of A69G U87C U102A, the self-cleavage stood at 0.69.

Consider A68G A82G U132C, for which the self-cleavage was found to be 0.97.

Take A78G A90G A116G A118C U120C U133C: the self-cleavage is 0.01.

Regarding G74C U122C U131C, the self-cleavage came out at 0.14.

As to U72A A82U A96G A140G, the self-cleavage is 0.18.

In the case of A69G U100A U102C, the self-cleavage is 2.02.

In the case of A68U A78G A129G, the self-cleavage was found to be 0.19.

Turning to C71A G80C A95G, the self-cleavage is 0.04.

As to G83U A96U U130A, the self-cleavage came to 0.21.

On to A78G A90G U132C, for which the self-cleavage came to 0.18.

Take A67U A95G U100C: the self-cleavage is 2.79.

In the case of G74C A126G A134G, the self-cleavage came to 0.22.

Regarding G79A A117G U139C, the self-cleavage turned out to be 0.16.

Turning to U72A A98G A117U U124A, the self-cleavage was 0.01.

Take A69G A86G A111U: the self-cleavage came out at 0.08.

A68G A91G A110G: the self-cleavage was 0.14.

As for U72A U87C A114C, the self-cleavage amounted to 0.03.

On to U70A A90G U102C A110G, for which the self-cleavage was found to be 0.1.

Turning to A68G G75U A94U U120C A135G, the self-cleavage was 0.05.

As for A68C A116G U131C, the self-cleavage was determined as 0.43.

Take A82G A96G C113U: the self-cleavage stood at 0.1.
